Laboratory results published in PubChem BioAssay AID588342 (National Center for Advancing Translational Sciences (NCATS), 2011).
About 25,000 (6.9%) of roughly 360,000 compounds were called active. The call rests on the fitted dose curve; in most records, active means well fitted inhibition curve with a large enough effect; inconclusive means small, poorly fitted or top-dose-only effect; inactive means flat fitted curve, though single readings scatter. Inconclusive means that the source gave no clear call. Where the call is inconclusive, the potency comes from a doubtful curve fit.

molecular target: Luciferin 4-monooxygenase (Photinus pyralis) (UniProt P08659); assay: qHTS profiling assay for firefly luciferase inhibitor/activator using purifed enzyme and Km concentrations of substrates (counterscreen for miR-21 project); conditions: purified FLuc, luminescence inhibition; series mostly up to 57.5 µM; further: nearly all actives have a fitted effect of over 55% in size
Description: MLPCN Grant: 1 R21 NS059478-01 (miR-21 grant) Assay Provider: NCGC NCGC Assay Overview: Firefly (Photinus pyralis) luciferase is one of the most commonly used transcriptional reporters for a number of reasons. It is considered one of the more dynamically responsive reporters -that is, responsive to changes in reporter transcription - as it requires no post-translational modifications and is enzymatically active directly after protein synthesis (Wood, 1998). Additionally, the half-life of the luciferase protein is short relative to other reporter-gene products (Wood, 1995). Whereas reporters with long half-lives potentially allow for increased signal due to accumulation of reporter-gene product, once accumulated in the cell, dynamic changes in reporter-gene expression may be difficult to detect(Fan and Wood, 2007; Almond et al., 2004). It has been shown that wild-type P. pyralis luciferase has a half-life of approximately […] hours in mammalian cells (Thompson et al., 1991). Firefly luciferase reporter-gene assays are also generally considered one of the most sensitive assay types (Wood, 1995; Wood, 1998). Although light produced in a bioluminescence reaction is of lower intensity than that produced during fluorescence emission, this is offset by little to no background light inherent to luminescent assays. Thus the luciferase reporter can be expressed at much lower levels than fluorescent proteins while still providing robust signal. # However, it was initially observed, in 1991, by Thompson et al., that compounds that resemble the substrates of firefly luciferase (FLuc) can act as competitive inhibitors of the enzyme, and that these compounds, upon interaction with luciferase in the cell, can actually stabilize the protein and increase its half-life. Accumulated intracellular FLuc protein can be measured as an increase in luminescence signal, upon addition of detection reagents (which contain high concentrations of FLuc substrates) commonly used in high-throughput screening. In cell-based reporter gene assays that use FLuc as the reporter gene to quantitate the potential influence of a given compound against the target biology, this apparent increase in luminescence can mistakenly be interpreted as identification of a compound that is active against the target of interest. This is the case for the miR-21 FLuc reporter gene assay used to identify inhibitors of the miR-21 pathway (PubChem AID 2289) - compounds of interest will inhibit miR-21 biogenesis/expression or activity, and are identified by causing an increase in luminescence, due to increased FLuc translation. However, FLuc inhibitory compounds that stabilize the FLuc protein will give an identical read-out, making it difficult to distinguish compounds that are active against the target from those active against FLuc. Previous profiling work to determine the prevalence of compounds that affect FLuc enzymatic activity (PubChem AID 411) identified that ~3% of the MLSMR library (then at ~72K) inhibited FLuc. […] Since the MLSMR had grown to ~350K compounds, and since it was expected that a significant percentage of compounds found active in the miR-21 FLuc assay would be FLuc inhibitors, the library was screened for activity against FLuc using a biochemical assay of purified FLuc and KM concentrations of FLuc substrates (D-luciferin and ATP).
NCGC Assay Protocol Summary: Reagents: 50mM Tris acetate, pH 7.5; 10mM Mg acetate; 10uM D-luciferin (Sigma #L9504); 10uM ATP; 0.01% Tween-20; 0.05% BSA; 10nM P. pyralis luciferase (Sigma #L9506) Control compounds used were two known firefly luciferase inhibitors (compounds (2) and (5) in Auld et al., 2010), and DMSO. […]
Tags describe the fitted curve by direction and shape.

UniProt P08659, sequence (P08659 whole entry, looked up): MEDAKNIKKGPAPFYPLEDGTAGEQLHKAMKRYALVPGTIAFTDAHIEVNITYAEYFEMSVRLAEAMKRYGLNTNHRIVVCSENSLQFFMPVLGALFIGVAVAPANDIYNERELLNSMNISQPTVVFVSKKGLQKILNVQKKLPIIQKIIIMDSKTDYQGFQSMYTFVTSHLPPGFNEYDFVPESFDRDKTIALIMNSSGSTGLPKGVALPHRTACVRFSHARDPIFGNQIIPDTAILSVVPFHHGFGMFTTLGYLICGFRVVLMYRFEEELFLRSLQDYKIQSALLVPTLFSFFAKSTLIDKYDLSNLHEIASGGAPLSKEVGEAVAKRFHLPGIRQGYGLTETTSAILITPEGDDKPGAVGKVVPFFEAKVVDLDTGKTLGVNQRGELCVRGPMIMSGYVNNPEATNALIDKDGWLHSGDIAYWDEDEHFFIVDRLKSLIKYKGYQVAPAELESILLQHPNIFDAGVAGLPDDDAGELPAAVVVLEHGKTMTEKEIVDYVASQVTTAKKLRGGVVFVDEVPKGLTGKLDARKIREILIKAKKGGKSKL

| SMILES | Potency |
| --- | --- |
| CCc1nnc(NS(=O)(=O)c2ccc(N/C=C(\C=O)c3nc4cc(Cl)ccc4o3)cc2)s1 | inconclusive: 33.8 µM [inhibitor, partial curve, poor fit] |
| O=C(Nc1ccc(C(=O)O)cc1)/C(=C\C=C\c1ccccc1)NC(=O)c1cccc(Br)c1 | inconclusive: 21.3 µM [inhibitor, single point] |
| CCOc1cc(/C=C2\C(=O)N(c3cccc(C(=O)O)c3)N=C2C(F)(F)F)ccc1OCC(=O)Nc1ccccc1OC | inconclusive: 30.1 µM [inhibitor, partial curve, poor fit] |
| CCCCCCc1c(C)c2ccc(OCC(=O)N[C@@H](Cc3ccccc3)C(=O)O)cc2oc1=O | inconclusive: 30.1 µM [inhibitor, single point] |
| COc1cc(/C=C2\C(=N)N3N=C(S(C)(=O)=O)SC3=NC2=O)ccc1OS(=O)(=O)c1ccccc1 | inconclusive: 21.3 µM [inhibitor, single point] |
| COc1ccc(C(=O)Nc2ccc(/C(C)=N/NC(=O)c3ccncc3)cc2)cc1 | inconclusive: 12 µM [inhibitor, partial curve] |
